Experimental data as given in patent publication US20250195501A1, “CELL ENTRY-MODULATING AGENTS AND USES THEREFOR” (priority 2020, published 2025).

Target: recombinant human ACE2 (Homo sapiens, UniProt Q9BYF1)
Assay type: binding
Set-up: purchased R&D Systems and Assay Matrix
Settings: SPR, Biacore S200, 25° C., PBS, single cycle kinetics, immobilized human ACE2

| SMILES | Kd [nM] |
| --- | --- |
| CCc1c2c(nc3ccc(OC(=O)N4CCC(N5CCCCC5)CC4)cc13)-c1cc3c(c(=O)n1C2)COC(=O)[C@]3(O)CC [Irinotecan] | 825 ± 112 |
| CC1(C)CCC(CN2CCN(c3ccc(C(=O)NS(=O)(=O)c4ccc(NCC5CCOCC5)c([N+](=O)[O-])c4)c(Oc4cnc5[nH]ccc5c4)c3)CC2)=C(c2ccc(Cl)cc2)C1 [Venetoclax] | 291 ± 31.1 |
